Among all 46,000 compounds or so, about 60 (0.1%) were called active. Another 3% or so got no clear call; they are omitted. Calls follow the shape of the dose curve; as a rule, active = well fitted inhibition curve with a large enough effect; inconclusive = small, poorly fitted or top-dose-only effect; inactive = no such curve, though single readings can be large or run the other way. Some of the results follow.
Assay: Primary qHTS assay for Inhibitors of ovarian cancer metastasis using an organotypic tumor microenvironment (TME) model. Also: nearly all actives have a fitted effect of over 65% in size.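 As to activity change, negative = inhibition: plate controls were DMSO wells for no effect and tomatine positive control wells for full effect.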
Settings: SKOV3ip1-GFP adhesion/invasion on 3D omental model, fluorescence; series mostly up to 45.8 µM; activity change, negative = inhibition: at the top concentration
In short: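 A 3D layer of primary human omental fibroblasts, mesothelial cells, fibronectin and collagen I, grown 48 hr, received SKOV3ip1-GFP cells in serum-free medium plus compounds at 0.36-46 umol/L. After 2 hr RT and 16 hr 37 C, fixed adherent GFP cells were counted; normalized to DMSO and tomatine.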

outcome, inactive:
COc1cccc(N2CCN(C3=NS(=O)(=O)C(c4ccc(C)cc4)=C3C)CC2)c1
COc1ccccc1NC(=O)N1CCN(Cc2nc3ccc(C)cc3o2)CC1
CCc1ccc(NC(=O)c2sc(-n3nc(C)c(Cc4ccc5c(c4)OCO5)c3C)nc2C)cc1
CCN(C(=O)Cn1cc(S(=O)(=O)N2CCN(c3ccccc3F)CC2)c2ccccc2c1=O)c1ccc(C)c(C)c1
COc1cccc(CNC(=O)C2CCN(Cc3cc4ccccc4n3Cc3ccccc3)CC2)c1OC
Cc1ccc(NC(=O)CSc2nc3ccccc3nc2Cc2ccccc2)c(Cl)c1
O=C(COc1ccc(Cl)cc1)Nc1ccc2nc(SCC(=O)N3CCOCC3)sc2c1
COc1ccc(S(=O)(=O)Nc2cc(-c3cn4ccc(C)cc4n3)ccc2C)cc1OC
CC(C)(C)c1ccc(S(=O)(=O)c2cnc(SCC(=O)Nc3ccc4c(c3)OCCO4)[nH]c2=O)cc1
CCN(CC)C(=O)CSc1nc2cc3c(cc2c(=O)n1CCCC(=O)NCc1ccc2c(c1)OCO2)OCO3
COc1ccc2nc(SCC(O)c3cccc(Br)c3)[nH]c2c1 (stereo not given)
CCOc1ccc(NC(=O)c2cn(C3CCCCC3)c(=O)c3c2c2ccccc2n3C)cc1
CCOc1ccc(CNC(=O)CCCn2c(=O)c3cccn3c3ccccc32)cc1
CCOc1ccccc1Nc1nc2ccccc2nc1NS(=O)(=O)c1ccc(Cl)cc1
O=C(Nc1cccc(C(=O)OCc2cc(=O)n3c4c(sc3n2)CCCC4)c1)c1ccc(Cl)cc1
O=C(Cn1cc(SCc2ccc(F)cc2)c2ccccc21)N1CCCCC1
O=C(CCCn1ncn2c(cc3occc32)c1=O)NCc1ccccc1F

Activity change, negative = inhibition, inactive:
Cn1cc(S(=O)(=O)N2CCCC2)cc1C(=O)N1CCN(c2cccc(Cl)c2)CC1 -6.27%
Cc1cc(C)c(NC(=O)Cn2c(=O)n(CC3CCCO3)c(=O)c3ccccc32)c(C)c1 (stereo not given) 19.4%
Cc1cnc(Nc2ccc(CN3CCOCC3)cc2)nc1Nc1cccc(S(=O)(=O)NC(C)(C)C)c1 -23.5%
Cc1cc2c(cc1NS(=O)(=O)c1ccc(NC(=O)CC(C)C)cc1)n(C)c(=O)c(=O)n2C -3.74%
CC(=O)Nc1c(C)nn(-c2ccccc2)c1N1CCC(C(=O)Nc2cc(F)ccc2F)CC1 -9.2%
Cc1ccc(N2C(=O)c3n[nH]c(C)c3C2c2ccccc2Cl)cc1 (stereo not given) -3.83%
Cc1cc(C)cc(NS(=O)(=O)c2c(C)nc3scc(C)n3c2=O)c1 5.5%
CCOC(=O)c1cc(C)n(CC2CCC(C(=O)Nc3ccc(OC)c(OC)c3)CC2)c1C (stereo not given) 5.2%
Cc1ccc2oc(C(=O)Nc3ccc(S(=O)(=O)N4CCCCCC4)cc3)cc(=O)c2c1 9.53%
COc1ccccc1NC(=O)Cn1nc2c3cc(F)ccc3n(Cc3cccc(C)c3)cc-2c1=O -10.8%
CC(C)Cn1cnc2c(N)nc3ccccc3c21 47.4%
O=C(Oc1ccccc1F)c1nc(SCc2ccccc2F)ncc1Cl 3.45%
CCOc1ccccc1NC(=O)Cn1c(=O)n(-c2ccc(C)c(C)c2)c(=O)c2oc3ccccc3c21 1.88%
CC(=O)N1CCCc2cc(S(=O)(=O)NCc3ccccc3Cl)ccc21 0.0919%
COc1ccc(Nc2ncc3c(n2)CCN(Cc2cccc(F)c2F)C3)c(OC)c1 -10.3%
CCN1CCC(N(Cc2ccc3c(c2)OCO3)C(=O)Nc2cccc(C)c2C)CC1 12.2%
O=C(Nc1ccccc1C(F)(F)F)c1noc2c1CCCC2 -4.17%
Oc1c(C(c2ccccc2Cl)N2CCC(O)CC2)sc2nc(-c3ccco3)nn12 (stereo not given) -1.76%
Cc1ccc(S(=O)(=O)c2nnn3c2nc(N2CCCC(C)C2)c2cc(Cl)ccc23)cc1C (stereo not given) 8.36%
CCc1ccc(Nc2nc3c(S(=O)(=O)c4ccc(C)cc4)nnn3c3ccsc23)cc1 -8.87%
Cc1ccc(C)c(NC(=O)c2cc(S(=O)(=O)N3CCN(c4cccc(Cl)c4)CC3)ccc2F)c1 1.19%
CCN(Cc1ccccc1)C(=O)C1CCC(CNS(=O)(=O)c2ccc3c(c2)CCCC(=O)N3)CC1 (stereo not given) 27%
Cc1ccc(-n2ncc(C(=O)NCc3ccccn3)c2C2CCN(C(=O)OC(C)(C)C)CC2)cc1C -0.0316%
Cc1ccc(Cl)cc1NC(=O)c1nnn(Cc2ccccc2)c1N -3.12%
CCn1ccc2cc(S(=O)(=O)N3CCC(C(=O)NCC(C)c4ccccc4)CC3)ccc21 (stereo not given) 0.987%
Cc1nnc2c3ccccc3nc(Nc3ccccc3C(=O)O)n12 -13.8%
Cc1ccc(NCc2cc3cc4c(cc3n(CC(=O)Nc3ccc(F)cc3F)c2=O)OCCO4)cc1 18.2%
CCOc1ccc(S(=O)(=O)NCc2ccc3c(c2)CCN3C(=O)c2ccc(C)cc2)cc1 3.96%
O=C(Nc1ccc(C(F)(F)F)cc1)c1cc(S(=O)(=O)N2CCCc3ccccc32)ccc1F 6.74%
Cc1ccc(CN2c3ccccc3-c3nc(SCC(=O)NCCc4ccccc4)ncc3S2(=O)=O)cc1 -9.54%
O=C(CN1C(=O)C2(SCC(=O)N2c2cccc(F)c2)c2ccccc21)NCc1ccccc1Cl (stereo not given) 1.31%
Clc1ccc(CN2CCc3nc(N4CCN(c5ccccn5)CC4)ncc3C2)cc1 0.731%
O=C(/C=C/c1ccccc1)Nc1nc2n(n1)C(c1ccc(Cl)cc1)C=C(c1ccccc1)N2 (stereo not given) 0.902%
Cc1nnsc1C(=O)Oc1ccc(C#N)cc1 3.31%
CCOC(=O)c1ccc(Oc2nc(C)nc3c2oc2ccccc23)cc1 -4.15%
CC(C)CC(=O)NCC(c1ccc2c(c1)OCO2)N1CCN(c2ccc(F)cc2)CC1 (stereo not given) -18.8%
CCOC(=O)c1cc(-c2ccccc2)n(CCCC(=O)Nc2cccc(C)c2)c1C -3.91%
CCc1nc2ccccc2n1CCCCOc1cccc(C)c1 12.7%
CCCOc1ccc(NC(=O)CC2C(=O)N(c3ccc(OC)cc3)C(=O)N2CCc2ccncc2)cc1 (stereo not given) -4.99%
Cc1nn(-c2ccc(N3CCCCC3)nn2)c(C)c1CCC(=O)NCc1ccccc1 -5.58%
COc1ccc(-c2cn3c(n2)sc2cc(C(=O)NCCCc4ccccc4)ccc23)cc1 5.58%
O=C(Cn1nc(N2CCN(c3ccccc3)CC2)ccc1=O)NCc1ccccc1F -2.73%
CCCS(=O)(=O)c1nc(S(=O)(=O)c2ccc(C)cc2)c(NCCCOC(C)C)s1 11.5%
COc1cccc2c1cc1c(=O)n(CC(=O)N3CCN(c4ccc(F)cc4)CC3)nc(C)n12 -3.45%
CCOc1ccc(C(=O)N(Cc2nc(-c3cccc(C)c3)no2)C(C)C)cc1 -24%
Cn1c(=O)c2c(nc(NCCc3ccccc3)n2Cc2ccccc2Br)n(C)c1=O -1.32%
Cc1ccc(-c2nnc(SCC(=O)NC(C)(C)C)nc2-c2ccc(C)cc2)cc1 -20%
Cc1cccc(C(=O)Nc2ccccc2OCc2cc(=O)n3ccccc3n2)c1 -1.94%
CC(C)(C)c1cc(C(=O)O)c(NC(=O)Nc2ccc3[nH]ncc3c2)s1 -1.78%
COc1ccc(-c2nc(CN3CCC(C(=O)NCc4ccc(C)cc4)CC3)c(C)o2)cc1OC 0.395%
COc1ccc(C(=O)n2nc(-c3cccnc3)nc2NCc2ccccc2)cc1OC 8.21%
COc1ccccc1CNc1ncnc2onc(-c3ccc(F)cc3)c12 -11.9%
COc1ccc(CCNC(=O)C(=O)NCC(c2cccs2)S(=O)(=O)c2cccs2)cc1 (stereo not given) -21.6%
COc1ccc(CNC(=O)CN2C(=O)COc3ccc(S(=O)(=O)N4CCCCC4)cc32)cc1 35%
Cc1ccc(-c2noc(-c3cccnc3NCc3ccco3)n2)cc1 -4.89%
COc1ccc2c(CNC3CCCCCC3)c(C(=O)O)n(Cc3ccc(C)cc3)c2c1 -1.99%
Cc1cc(F)ccc1NC(=O)Cn1nc(N2CCN(c3ccccc3)CC2)ccc1=O -4.97%
CCOc1cccc(C(=O)Nc2ccc3oc(-c4ccncc4)nc3c2)c1 8.91%
Cc1cc(C)c(NC(=O)CSc2nc3nccnc3c(=O)n2CCc2c[nH]c3ccccc23)c(C)c1 -24.6%
COc1cc(OC)c(NS(=O)(=O)c2c(C)nc3sc(C)cn3c2=O)cc1Cl 4.99%
COc1ccc(-c2cc(OC(=O)c3ccccc3Cl)c3c(C)oc(C)c3c(=O)c2)cc1OC -24.4%
CCc1nnc(SCc2cccc(Cl)c2)c2cc3sccc3n12 -22.7%
CCCSc1oc(-c2cccs2)nc1S(=O)(=O)c1ccc(C)cc1 0.159%
COc1ccc(NC(=O)Cn2c(=O)n(CCCCCC(=O)NCc3ccc4c(c3)OCO4)c(=O)c3sccc32)cc1Cl -2.73%
Cc1ccc(Cn2c(C)c3cnn(CC(=O)O)c(=O)c3c2C)cc1 -1.34%
O=C1CCCC2=C1C(c1[nH]ncc1Cl)N=C(Nc1nc3ccccc3o1)N2 (stereo not given) -8.44%
COc1ccc2c(c1)c(CC(=O)Nc1cc(C)cc(C)c1)c(C)n2C(=O)c1ccc(Cl)cc1 3.88%
CCOc1cc(S(=O)(=O)NCCc2c(C)[nH]c3ccc(C)cc23)ccc1F 4.46%
COc1ccc(C)cc1NC(=O)c1sc2nc(-c3ccc(F)cc3)cn2c1C 3.53%
CCN(CC)C(=O)c1sc2c(c1C)c(=O)n(Cc1ccccc1)c(=O)n2Cc1cc(C)ccc1C 1.64%
O=C(NCc1ccccc1)c1cnc2sc(N3CCCC3)nn2c1=O -4.66%
COc1ccccc1NC(=O)c1sc(-c2ccc(Cl)cc2)cc1N -7.4%
CCc1ccc2c(c1)NC(c1ccc(F)cc1)=NC(c1ccncc1)=N2 0.475%
O=C(Nc1ccccc1C(F)(F)F)c1cc2nc(-c3ccccc3)cc(-c3ccccc3)n2n1 1.18%
Cc1cc2c(cc1S(=O)(=O)C(C)CC(=O)NC1CCC(C)CC1)OCC(=O)N2 (stereo not given) -0.148%
Cc1cc(C)c2oc(C(=O)Nc3ccc(S(=O)(=O)Nc4ncccn4)cc3)cc(=O)c2c1 -6.93%
CCOC(=O)c1[nH]c2c(c1Cc1ccccc1OC)C(=O)CC(c1ccccc1)C2 (stereo not given) 1.47%
CCCCn1c(=O)c2oc3ccccc3c2n(Cc2ccccc2C)c1=O -2.46%

Reference: PubChem BioAssay AID1963576 (National Center for Advancing Translational Sciences (NCATS), 2024)
